Data reported in the supplement of paper PMC4967469.
IC50 is the fitted dose that halves viability relative to control wells, and lower means more sensitive; a limit (>, <) means that the fit lies beyond the doses tested. AUC sums up the same curve from the lowest dose to the 256-fold higher top dose: 1 means no effect, lower means more sensitive. For some assays here: A top dose marked as inferred is not printed in the source and was worked back from the curve model. For some assays here: An entry number marks a drug with two screens in the source, which often give different values.

Columns and labels:
Assay in all cases: Viability of human cancer cell lines after 72 h of drug (GDSC screen)
Belinostat = compound: O=C(/C=C/c1cccc(S(=O)(=O)Nc2ccccc2)c1)NO [Belinostat]; conditions: top dose 20 µM; top dose inferred
Protocol: (§1)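 Human cancer cell lines in 384-well plates, medium with 10% serum, drug for 72 h over a 256-fold dose range (nine 2-fold or five 4-fold steps up to the top dose). Adherent lines were fixed and stained with the nucleic acid dye Syto60, suspension lines read with resazurin; signal relative to control wells, capped at 0 and 100%. One two-parameter sigmoid per drug and line, fitted in a mixed model over all curves with the slope shared within a line.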

Docetaxel = compound: CC(=O)O[C@@]12CO[C@@H]1C[C@H](O)[C@@]1(C)C(=O)[C@H](O)C3=C(C)[C@@H](OC(=O)[C@H](O)[C@@H](NC(=O)OC(C)(C)C)c4ccccc4)C[C@@](O)([C@@H](OC(=O)c4ccccc4)[C@H]21)C3(C)C [Docetaxel]; conditions: top dose 0.0125 µM
Protocol: as §1

NSC-207895 = compound: CN1CCN(c2ccc([N+](=O)[O-])c3no[n+]([O-])c23)CC1 [NSC-207895]; conditions: top dose 20 µM; top dose inferred
Protocol: as §1

OSI-906 = compound: C[C@]1(O)C[C@@H](c2nc(-c3ccc4ccc(-c5ccccc5)nc4c3)c3c(N)nccn32)C1 [OSI-906]; conditions: top dose 2.56 µM; top dose inferred
Protocol: as §1

JNK Inhibitor VIII = compound: CCOc1nc(NC(=O)Cc2cc(OC)ccc2OC)cc(N)c1C#N [JNK Inhibitor VIII]; conditions: top dose 10 µM; top dose inferred
Protocol: as §1

SB-715992 = compound: Cc1ccc(C(=O)N(CCCN)[C@@H](c2nc3cc(Cl)ccc3c(=O)n2Cc2ccccc2)C(C)C)cc1 [SB-715992]; conditions: top dose 0.128 µM; top dose inferred
Protocol: as §1

YM155 = compound: COCC[n+]1c2c(n(Cc3cnccn3)c1C)C(=O)c1ccccc1C2=O [YM155]; conditions: top dose 5.12 µM
Protocol: as §1

AMG-706 = compound: CC1(C)CNc2cc(NC(=O)c3cccnc3NCc3ccncc3)ccc21 [AMG-706]; conditions: top dose 2 µM; top dose inferred
Protocol: as §1

JQ1 = compound: Cc1sc2c(c1C)C(c1ccc(Cl)cc1)=N[C@@H](CC(=O)OC(C)(C)C)c1nnc(C)n1-2 [JQ1]
Protocol: as §1

FTI-277 = compound: COC(=O)[C@H](CCSC)NC(=O)c1ccc(NC[C@@H](N)CS)cc1-c1ccccc1 [FTI-277]; conditions: top dose 1.024 µM; top dose inferred
Protocol: as §1

JNJ-26854165 = compound: c1ccc2c(CCNc3ccc(Nc4ccncc4)cc3)c[nH]c2c1 [JNJ-26854165]; conditions: top dose 10 µM
Protocol: as §1

[1] = top dose 1 µM, screen: GDSC drug entry 1218, top dose inferred
[2] = top dose 2.56 µM, screen: GDSC drug entry 163

| Cell Line | AUC (Belinostat) | IC50 (Belinostat) | AUC (Docetaxel) | IC50 (Docetaxel) | AUC (NSC-207895) | IC50 (NSC-207895) | AUC (OSI-906) | IC50 (OSI-906) | AUC (JNK Inhibitor VIII) | IC50 (JNK Inhibitor VIII) | AUC (SB-715992) | IC50 (SB-715992) | AUC (YM155) | IC50 (YM155) | AUC (AMG-706) | IC50 (AMG-706) | AUC (JQ1; [1]) | IC50 (JQ1; [1]) | AUC (JQ1; [2]) | IC50 (JQ1; [2]) | AUC (FTI-277) | IC50 (FTI-277) | AUC (JNJ-26854165) | IC50 (JNJ-26854165) |
| --- | --- | --- | --- | --- | --- | --- | --- | --- | --- | --- | --- | --- | --- | --- | --- | --- | --- | --- | --- | --- | --- | --- | --- | --- |
| HT-1197 (bladder, adherent) | 0.429 | 0.768 µM | 0.873 | > 0.0125 µM | 0.86 | > 20 µM | 0.885 | > 2.56 µM | 0.973 | > 10 µM | 0.957 | > 0.128 µM | 0.036 | < 0.02 µM | 0.978 | > 2 µM | 0.982 | > 1 µM | 0.569 | 0.255 µM | 0.923 | > 1.02 µM |  |  |
| KYSE-450 (oesophagus, adherent) | 0.439 | 0.861 µM | 0.598 |  | 0.915 | > 20 µM | 0.985 | > 2.56 µM | 0.953 | > 10 µM | 0.586 | 0.0135 µM | 0.038 | < 0.02 µM | 0.984 | > 2 µM | 0.981 | > 1 µM | 0.575 | 0.254 µM | 0.978 | > 1.02 µM |  |  |
| LN-229 (glioma, adherent) |  |  | 0.682 | 0.00251 µM | 0.983 | > 20 µM | 0.975 | > 2.56 µM | 0.979 | > 10 µM | 0.971 | > 0.128 µM | 0.206 | 0.0437 µM | 0.972 | > 2 µM | 0.986 | > 1 µM | 0.812 | 1.37 µM | 0.98 | > 1.02 µM | 0.873 | 9.56 µM |
| LNZTA3WT4 (glioma, adherent) |  |  | 0.826 | 0.00735 µM | 0.981 | > 20 µM | 0.983 | > 2.56 µM | 0.987 | > 10 µM | 0.964 | > 0.128 µM | 0.864 | 4.33 µM | 0.959 | > 2 µM | 0.876 | 0.964 µM | 0.745 | 0.792 µM | 0.983 | > 1.02 µM | 0.928 | > 10 µM |
| LS-180 (large intestine, adherent) |  |  | 0.908 | > 0.0125 µM | 0.878 | > 20 µM | 0.913 | > 2.56 µM | 0.976 | > 10 µM | 0.868 | > 0.128 µM | 0.19 | 0.0322 µM | 0.976 | > 2 µM | 0.983 | > 1 µM | 0.648 | 0.439 µM | 0.982 | > 1.02 µM | 0.879 | > 10 µM |
| LoVo (large intestine, adherent) | 0.567 | 1.92 µM | 0.87 | 0.0119 µM | 0.983 | > 20 µM | 0.984 | > 2.56 µM | 0.967 | > 10 µM | 0.909 | > 0.128 µM | 0.643 | 0.8 µM | 0.974 | > 2 µM | 0.986 | > 1 µM | 0.749 | 0.838 µM | 0.959 | > 1.02 µM |  |  |
